The record followed here is the supplement of paper PMC10037445.

In test [1] the test system is RAW-Dual. Nature of the test: IRF Lucia reporter activity, fold change vs agonist alone; cytotoxicity flag (confluency mask): not cytotoxic; higher = enhanced IRF activity. In short, it runs like this: (§1)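 RAW-Dual macrophages were seeded in DMEM at 50,000 cells/well in 384-well plates, given 50 nL of library stock by pin tool, and given a PRR agonist 1 h later. Plates were held at 37 °C, 5% CO2 for 20 hours, after which supernatant was read for IRF by QuantiLuc luminescence and for NF-κB by QuantiBlue absorbance at 620 nm. Reporter activity is expressed as fold change over wells that received agonist alone. A well was called cytotoxic when IncuCyte confluency fell below 70% of agonist controls in both mask sets.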

Test [2] concerns RAW-Dual. Kind of test: IRF Lucia reporter activity, fold change vs agonist alone; higher = enhanced IRF activity. As to conditions: agonist: MPLA (TLR4) […]. In short, it runs like this: as §1
Test [3] relates to RAW-Dual. Nature of the test: IRF Lucia reporter activity, fold change vs agonist alone; cytotoxicity flag (confluency mask): cytotoxic (confluency <70% of control); higher = enhanced IRF activity. In short, it runs like this:
as §1

Setting [4] is: agonist: 3'3'-cGAMP (STING) 10 ug/mL.
The mark [5] stands for this setting: library stock concentration (final ~1000-fold dilution): 10 mM, cytotoxicity flag (confluency mask): not cytotoxic.

“And” between values parts separate entries of the source, which are not always exact repeats. Identical values can stand only once. ± gives the standard deviation of the averaged measurements. The full ranking holds about 2,900 compounds; the median of “IRF Lucia reporter activity, fold change vs agonist alone” is about 0.9, and the highest 2% start at about 2.8. The list shows a part of the results.

As for `CCCOc1ccc(C(=O)OCCN(CC)CC)cc1N.Cl` (library stock concentration (final ~1000-fold dilution): 10 mM), the “IRF Lucia reporter activity” value with RAW-Dual [1] (setting [4]) was found to be 1.04; with RAW-Dual [1] (agonist: LPS (TLR4) 0.1 ug/mL), 0.91.
`CCCOc1ccc(C(=O)OCCN(CC)CC)cc1N.Cl`: the “IRF Lucia reporter activity” value in the test with RAW-Dual [2] (setting [5]) was 0.743.
Regarding `COc1nc(OCc2cccc(-c3ccccc3)c2C)ccc1CNCCNC(C)=O` (library stock concentration (final ~1000-fold dilution): 10 mM), the figures for the “IRF Lucia reporter activity” value in the test on RAW-Dual [3] (setting [4]) and in the test on RAW-Dual [3] (agonist: LPS (TLR4) 0.1 ug/mL) were 0.221 and 0.467, respectively.
Turning to `Cc1c(-c2ccccc2)oc2c(C(=O)OCCN3CCCCC3)cccc2c1=O.Cl`, the “IRF Lucia reporter activity” value in the test on RAW-Dual [2] (library stock concentration (final ~1000-fold dilution): 10 mM water, cytotoxicity flag (confluency mask): not cytotoxic) was 1.29.
Consider `Cc1c(-c2ccccc2)oc2c(C(=O)OCCN3CCCCC3)cccc2c1=O.Cl` (library stock concentration (final ~1000-fold dilution): 10 mM water), for which the “IRF Lucia reporter activity” value with RAW-Dual [1] (setting [4]) was found to be 1.09; in the test on RAW-Dual [1] (agonist: LPS (TLR4) 0.1 ug/mL) it was 0.892.
`CN1CCc2c(c3ccccc3n2Cc2ccc(C(=O)NO)cc2)C1` (library stock concentration (final ~1000-fold dilution): 10 mM): the “IRF Lucia reporter activity” value came out at 0.943 with RAW-Dual [1] (setting [4]) and 1.19 in the test on RAW-Dual [1] (agonist: LPS (TLR4) 0.1 ug/mL).
For `CN(C)C(=O)c1ccc(S(=O)(=O)c2ccc(NC(=O)C(C)(O)C(F)(F)F)c(Cl)c2)cc1` (centres undefined), the “IRF Lucia reporter activity” value in the test on RAW-Dual [2] (setting [5]) is 1.27.
`CN(C)C(=O)c1ccc(S(=O)(=O)c2ccc(NC(=O)C(C)(O)C(F)(F)F)c(Cl)c2)cc1` (centres undefined) (library stock concentration (final ~1000-fold dilution): 10 mM): the entries for the “IRF Lucia reporter activity” value in the test with RAW-Dual [1] (setting [4]) and in the test on RAW-Dual [1] (agonist: LPS (TLR4) 0.1 ug/mL) were 1.25 and 1.24, respectively.
`O=c1c(-n2ccnn2)c[nH]n1-c1cc(N2CCOCC2)ncn1` (library stock concentration (final ~1000-fold dilution): 2 mM): the “IRF Lucia reporter activity” value in the test with RAW-Dual [1] (setting [4]) stood at 0.977; in the test with RAW-Dual [1] (agonist: LPS (TLR4) 0.1 ug/mL) it was 0.873.
On the same counts, the results for `COc1cc(/C=C/CO)cc(OC)c1OC1OC(CO)C(O)C(O)C1O` (centres undefined) (library stock concentration (final ~1000-fold dilution): 10 mM) are 1.08 and 0.899.
`COc1cc(/C=C/CO)cc(OC)c1OC1OC(CO)C(O)C(O)C1O` (centres undefined): the “IRF Lucia reporter activity” value in the test on RAW-Dual [2] (setting [5]) is 1.05.
Regarding `Cc1cnc(-c2cc(N3CCN(C(=O)CCS(C)(=O)=O)CC3)ncc2Cl)c(C)c1` (library stock concentration (final ~1000-fold dilution): 10 mM), the “IRF Lucia reporter activity” value came to 1.08 with RAW-Dual [1] (setting [4]) and 1.07 with RAW-Dual [1] (agonist: LPS (TLR4) 0.1 ug/mL).
Take `Cc1cnc(-c2cc(N3CCN(C(=O)CCS(C)(=O)=O)CC3)ncc2Cl)c(C)c1`: in the test on RAW-Dual [2] (setting [5]), the “IRF Lucia reporter activity” value was found to be 1.07.
Turning to `CNC(=O)c1cc(Oc2ccc3nc(NC4CCCCC4O)sc3c2)ccn1` (centres undefined) (library stock concentration (final ~1000-fold dilution): 10 mM), the “IRF Lucia reporter activity” value in the test on RAW-Dual [1] (setting [4]) was 1; in the test on RAW-Dual [1] (agonist: LPS (TLR4) 0.1 ug/mL), 0.776.
On to `N#CCNC(=O)c1ccc(-c2ccnc(Nc3ccc(N4CCOCC4)cc3)n2)cc1` (library stock concentration (final ~1000-fold dilution): 10 mM), for which the entries for the “IRF Lucia reporter activity” value in the test on RAW-Dual [1] (setting [4]) and in the test with RAW-Dual [1] (agonist: LPS (TLR4) 0.1 ug/mL) were 0.97 and 0.0185, respectively.
For the compound `N#CCNC(=O)c1ccc(-c2ccnc(Nc3ccc(N4CCOCC4)cc3)n2)cc1`, the “IRF Lucia reporter activity” value in the test on RAW-Dual [2] (setting [5]) worked out at 0.966.
Turning to `Cc1ccc(C(=O)Nc2ccc(Oc3cc4cnn(C)c4cc3-c3cn[nH]c3)c(F)c2)c(=O)n1-c1ccc(F)cc1`, the “IRF Lucia reporter activity” value with RAW-Dual [2] (setting [5]) was 0.178.
In the case of `Cc1ccc(C(=O)Nc2ccc(Oc3cc4cnn(C)c4cc3-c3cn[nH]c3)c(F)c2)c(=O)n1-c1ccc(F)cc1` (library stock concentration (final ~1000-fold dilution): 10 mM), the entries for the “IRF Lucia reporter activity” value in the test with RAW-Dual [1] (setting [4]) and in the test on RAW-Dual [1] (agonist: LPS (TLR4) 0.1 ug/mL) were 0.0679 and 0.219, respectively.
On to `OCc1c[nH]c2ccccc12` (library stock concentration (final ~1000-fold dilution): 10 mM), for which the “IRF Lucia reporter activity” value in the test on RAW-Dual [1] (setting [4]) was 0.803 and 0.565; in the test with RAW-Dual [1] (agonist: LPS (TLR4) 0.1 ug/mL), 0.839 and 0.758.
For the compound `OCc1c[nH]c2ccccc12`, in the test with RAW-Dual [2] (setting [5]), the “IRF Lucia reporter activity” value was determined as 1.07 ± 0.022.
Take `CCC1C(=O)N(C)c2cnc(Nc3ccc(C(=O)NC4CCN(C)CC4)cc3OC)nc2N1C1CCCC1` (centres undefined) (library stock concentration (final ~1000-fold dilution): 10 mM): the “IRF Lucia reporter activity” value with RAW-Dual [3] (setting [4]) was 0.0273; with RAW-Dual [3] (agonist: LPS (TLR4) 0.1 ug/mL), 0.0258.
In the case of `CCC1C(=O)N(C)c2cnc(Nc3ccc(C(=O)NC4CCN(C)CC4)cc3OC)nc2N1C1CCCC1` (centres undefined), the “IRF Lucia reporter activity” value in the test on RAW-Dual [2] (library stock concentration (final ~1000-fold dilution): 10 mM, cytotoxicity flag (confluency mask): cytotoxic (confluency <70% of control)) was 0.0268.
Regarding `O=C(/C=C/c1ccc(O)cc1)c1ccc(O)cc1O` (library stock concentration (final ~1000-fold dilution): 10 mM), the “IRF Lucia reporter activity” value with RAW-Dual [1] (setting [4]) was 0.399; in the test with RAW-Dual [1] (agonist: LPS (TLR4) 0.1 ug/mL), 0.422.
`O=C(/C=C/c1ccc(O)cc1)c1ccc(O)cc1O`: the “IRF Lucia reporter activity” value in the test on RAW-Dual [2] (setting [5]) came out at 0.655.
For `Cc1ncc(-c2ccnc(Nc3ccc(S(C)(=O)=O)cc3)n2)n1C(C)C`, the “IRF Lucia reporter activity” value in the test on RAW-Dual [2] (setting [5]) came to 1.06.
For `Cc1ncc(-c2ccnc(Nc3ccc(S(C)(=O)=O)cc3)n2)n1C(C)C` (library stock concentration (final ~1000-fold dilution): 10 mM), the figures for the “IRF Lucia reporter activity” value in the test on RAW-Dual [1] (setting [4]) and in the test with RAW-Dual [1] (agonist: LPS (TLR4) 0.1 ug/mL) were 1 and 0.0135, respectively.
Turning to `CN1CCC(=C2c3ccccc3C=Cc3ccccc32)CC1.Cl`, the “IRF Lucia reporter activity” value in the test on RAW-Dual [2] (setting [5]) amounted to 1.01.
With `CN1CCC(=C2c3ccccc3C=Cc3ccccc32)CC1.Cl` (library stock concentration (final ~1000-fold dilution): 10 mM), the “IRF Lucia reporter activity” value in the test on RAW-Dual [1] (setting [4]) was determined as 0.427; in the test on RAW-Dual [1] (agonist: LPS (TLR4) 0.1 ug/mL), 1.05.
